Reference: the supplement of paper PMC6206098
± gives the uncertainty stated by the source. Shown are siRNA guide strands that differ only in the seed, positions 2 to 7.

Assays:
[1] = system: HeyA8; test: cell viability relative to lipid-only control; higher = less toxic; conditions: concentration: 10 nM; 96 h; Homo sapiens
Description: (§1)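 Arrayed screen of 4096 siRNA duplexes, each carrying one of all possible 6mer seeds at guide-strand positions 2-7 in a fixed neutral 19mer scaffold (constant flanks: U at position 1, then ACAUGUAAACCA, plus a 3' AA overhang). The passenger strand is 2'-O-methylated at positions 1-2 so only the guide strand loads into RISC. Duplexes were reverse-transfected at 10 nM with RNAiMAX in triplicate in 384-well plates; viability was read by CellTiter-Glo ATP content 96 h after transfection. Values are % viability normalised to lipid-only wells (HeyA8, H460, M565) or to siNT1 (3LL).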

[2] = system: H460; test: as above; conditions: concentration: 10 nM; 96 h; Homo sapiens
Description: as §1

[3] = system: M565; test: as above; conditions: concentration: 10 nM; 96 h; Mus musculus
Description: as §1

[4] = system: 3LL; test: cell viability relative to siNT1 control; HeyA8 human ovarian and H460 human lung cancer; M565 mouse liver and 3LL mouse lung cancer; siNT1 is a non-toxic control siRNA; higher = less toxic; conditions: concentration: 10 nM; 96 h; Mus musculus;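 also: Luminescence-based viability of cells reverse transfected in 384-well plates with lipid-complexed siRNAs built on a non-toxic 19mer backbone whose passenger strand carries 2′-O-methyl groups at positions 1 and 2, triplicates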
Description: as §1
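For cell viability relative to lipid-only control in this document: reverse lipid transfection in 384-well plates, in triplicate, of duplexes on a non-toxic 19mer backbone with passenger strand 2′-O-methylated at positions 1 and 2, luminescence viability read-out.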

Sequence | cell viability [1] [%] | cell viability [2] [%] | cell viability [3] [%] | cell viability [4] [%]
UGUAGGUACAUGUAAACCAAA | 4.29 ± 0.18 | 33.7 ± 3.7 | 5.44 ± 1.5 | 14.3 ± 8.3
UCGAUUUACAUGUAAACCAAA | 81.9 ± 10 | 88.1 ± 13 | 75 ± 12 | 90.2 ± 18
UUCAUCGACAUGUAAACCAAA | 74.9 ± 15 | 69.8 ± 8.1 | 83.9 ± 6.8 | 84.1 ± 21
UUGGUCGACAUGUAAACCAAA | 70.3 ± 7 | 58.8 ± 9.6 | 121 ± 22 | 86.7 ± 4.9
UCGGCUAACAUGUAAACCAAA | 72.5 ± 7.8 | 83.2 ± 6.8 | 69.7 ± 5.5 | 97.5 ± 16
UUGUUUGACAUGUAAACCAAA | 56.9 ± 4.1 | 59.4 ± 1.2 | 88.9 ± 29 | 51.6 ± 4.2
UCUGAAUACAUGUAAACCAAA | 86.8 ± 14 | 79.7 ± 7.2 | 69.4 ± 18 | 100 ± 18
UCGUGUGACAUGUAAACCAAA | 84.8 ± 5.8 | 76.7 ± 10 | 54.6 ± 1.7 | 89.6 ± 11
UUUAUUCACAUGUAAACCAAA | 78.5 ± 3.4 | 61.2 ± 9.7 | 56.2 ± 3.2 | 84.1 ± 4.4
UGUUCAUACAUGUAAACCAAA | 70.7 ± 3.6 | 86.6 ± 12 | 35.6 ± 2.3 | 92 ± 6.1
UGGAACGACAUGUAAACCAAA | 75.7 ± 5.6 | 83.8 ± 13 | 43.7 ± 8 | 99.7 ± 14
UCGCGAAACAUGUAAACCAAA | 84.6 ± 3.2 | 84.3 ± 3.6 | 75.7 ± 5.9 | 97 ± 17
UAAAGAGACAUGUAAACCAAA | 88 ± 6 | 72.4 ± 12 | 80.5 ± 20 | 108 ± 9.8
UGGAUCUACAUGUAAACCAAA | 10.1 ± 1.4 | 36.8 ± 3.1 | 47.5 ± 9.9 | 74.7 ± 5.9
UGUUUCCACAUGUAAACCAAA | 4.57 ± 1.1 | 47 ± 5.9 | 83.5 ± 21 | 55.2 ± 21
UGAUCCUACAUGUAAACCAAA | 52.2 ± 2.3 | 33.8 ± 5.1 | 19 ± 3.5 | 19.7 ± 2.7
UCGUCGUACAUGUAAACCAAA | 45.5 ± 6.3 | 59.7 ± 4.3 | 50.8 ± 4.3 | 67.4 ± 19
UUCGCCCACAUGUAAACCAAA | 71.3 ± 3.9 | 67.6 ± 6.5 | 91.8 ± 1.2 | 75.6 ± 19
UCUGAGGACAUGUAAACCAAA | 75.3 ± 5 | 58.5 ± 5.2 | 33.1 ± 7.5 | 98.8 ± 9.8

Sequence | cell viability [1] [%] | cell viability [2] [%] | cell viability [3] [%] | cell viability [4] [%]
UCGCCAAACAUGUAAACCAAA | 94.5 ± 7.8 | 85 ± 20 | 65.1 ± 2.2 | 101 ± 20
UGGCUCAACAUGUAAACCAAA | 8.73 ± 1 | 29.5 ± 0.94 | 44.9 ± 2.9 | 18.8 ± 1.4
UUUUAAUACAUGUAAACCAAA | 101 ± 8.1 | 80.3 ± 9.1 | 95.6 ± 6.2 | 102 ± 7.5
UAGGCUUACAUGUAAACCAAA | 20.2 ± 1.9 | 54.1 ± 3 | 24.6 ± 10 | 65.3 ± 5.5
UUUACUGACAUGUAAACCAAA | 103 ± 5.8 | 92.1 ± 12 | 78.8 ± 14 | 103 ± 6.7
UCGGACAACAUGUAAACCAAA | 83.4 ± 3.7 | 52.7 ± 4.8 | 38.9 ± 3.1 | 96.4 ± 16
UGACUUGACAUGUAAACCAAA | 71.6 ± 9.2 | 63.3 ± 8.9 | 65.1 ± 3.8 | 85 ± 15
UAUAUCCACAUGUAAACCAAA | 18.9 ± 0.81 | 42.4 ± 7.3 | 40.8 ± 10 | 25.6 ± 3.3
UUGCGGGACAUGUAAACCAAA | 59.7 ± 6.9 | 53.8 ± 3.4 | 45.8 ± 8.9 | 59.9 ± 8.4
UGGUAUAACAUGUAAACCAAA | 69.1 ± 0.94 | 73 ± 5.3 | 71.5 ± 6.9 | 91.2 ± 11
UUCUGGGACAUGUAAACCAAA | 3.2 ± 0.26 | 57.2 ± 6.2 | 16.5 ± 2.1 | 2.3 ± 0.19
UAACUCGACAUGUAAACCAAA | 94.4 ± 1.9 | 65.9 ± 5 | 71.1 ± 5.3 | 90.6 ± 8.3
UCUCAGCACAUGUAAACCAAA | 58.1 ± 2.2 | 35.4 ± 1.9 | 60.6 ± 10 | 64.7 ± 10
UGUAGGCACAUGUAAACCAAA | 3.7 ± 0.61 | 35.9 ± 0.88 | 5.46 ± 0.95 | 8.97 ± 5.7
UCGUGGCACAUGUAAACCAAA | 17.3 ± 1.2 | 16.1 ± 2 | 28.9 ± 1.9 | 18.9 ± 5.3
UUAGCCAACAUGUAAACCAAA | 63.3 ± 6.9 | 57 ± 6.1 | 72.9 ± 14 | 56.7 ± 2.9
UACAUCCACAUGUAAACCAAA | 38.4 ± 1.1 | 39.8 ± 0.79 | 19.4 ± 8 | 7.76 ± 1.3
UCUAAGCACAUGUAAACCAAA | 77.4 ± 4.5 | 56 ± 4.2 | 62.6 ± 15 | 90.9 ± 12
UCGCGCCACAUGUAAACCAAA | 22.6 ± 2.5 | 49.3 ± 3 | 41.5 ± 6.1 | 74.5 ± 18

Sequence | cell viability [1] [%] | cell viability [2] [%] | cell viability [3] [%] | cell viability [4] [%]
UGCAGAUACAUGUAAACCAAA | 30.6 ± 4.4 | 44 ± 4.9 | 20.6 ± 5.6 | 33.4 ± 6.1
UUUAAUUACAUGUAAACCAAA | 96 ± 7.8 | 80.3 ± 12 | 85.7 ± 15 | 98.3 ± 6.1
UUACUGUACAUGUAAACCAAA | 94.9 ± 5.6 | 61.8 ± 4.9 | 39.7 ± 11 | 59.6 ± 7.5
UUUCAAUACAUGUAAACCAAA | 95.1 ± 5.3 | 51.9 ± 0.83 | 88.5 ± 10 | 96.9 ± 6.6
UGGUUAAACAUGUAAACCAAA | 75.7 ± 5.5 | 74.3 ± 16 | 58.2 ± 10 | 92.3 ± 12
UCAUACUACAUGUAAACCAAA | 61.1 ± 6.9 | 20.7 ± 1.3 | 81.8 ± 9.6 | 98.3 ± 11
UCAAAUAACAUGUAAACCAAA | 82.4 ± 6.9 | 74.5 ± 7 | 63.8 ± 5.5 | 90 ± 15
UUUUAUUACAUGUAAACCAAA | 82.9 ± 3.2 | 67.2 ± 5.1 | 101 ± 12 | 91.6 ± 11
UGGUGGUACAUGUAAACCAAA | 1.95 ± 0.18 | 5.8 ± 1.7 | 12.1 ± 6.9 | 3.4 ± 0.52
UUCAGUGACAUGUAAACCAAA | 44.6 ± 1.8 | 62.4 ± 5.3 | 91.6 ± 5.1 | 105 ± 19
UAGGAGCACAUGUAAACCAAA | 11.7 ± 1.2 | 13.3 ± 0.35 | 7.53 ± 0.46 | 9.09 ± 1
UGUCAACACAUGUAAACCAAA | 9.32 ± 0.87 | 42.4 ± 1.9 | 9.55 ± 1.9 | 31.3 ± 9.6
UCACACUACAUGUAAACCAAA | 68.2 ± 5.8 | 15.3 ± 0.53 | 52.6 ± 2 | 78.5 ± 16
UCGGAUCACAUGUAAACCAAA | 22.2 ± 1.9 | 49.7 ± 3.6 | 29.8 ± 2.6 | 73.1 ± 18
UGUUAAUACAUGUAAACCAAA | 68.4 ± 2.9 | 55.9 ± 1.8 | 49.4 ± 5.8 | 88.2 ± 4.8
UACACUUACAUGUAAACCAAA | 63.9 ± 6.9 | 84 ± 14 | 39.9 ± 6.2 | 71.4 ± 11
UUUAAAAACAUGUAAACCAAA | 94.7 ± 2.8 | 81.2 ± 8.3 | 92.4 ± 7.2 | 97.5 ± 1.3
UGGUUAUACAUGUAAACCAAA | 75.2 ± 8.2 | 68.7 ± 10 | 63.9 ± 2.1 | 95 ± 9.9
UUCCGAGACAUGUAAACCAAA | 96.3 ± 5.3 | 93.2 ± 13 | 99.5 ± 9 | 109 ± 21
